Experimental data as given in PubChem BioAssay AID485344 (National Center for Advancing Translational Sciences (NCATS), 2010).
In all, about 340,000 compounds went through this assay and about 6,900 (2%) were called active. Cut-off read from the data, not from the text of the source: active = inhibition above about 30%; inactive = below that, where a call was filed. The list shows a part of the results, in another mix than the full data. Where no call is shown, the source filed none.

Biological target: D(2) dopamine receptor (Homo sapiens) (UniProt P14416)
Assay: HTS Assay for Allosteric Antagonists of the Human D2 Dopamine Receptor: Primary Screen for Antagonists; note: 0% is about no effect
Conditions: HEK293 TREx D2 cells, calcium flux, dopamine EC80; at 10 µM; stronger effect = higher value
In short: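 Inhibition of EC80 dopamine-driven calcium flux, recorded kinetically, defines activity here; cells are a tetracycline-induced HEK293 T-REx line expressing force-coupled D2.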

Chain of UniProt P14416 (P14416 whole entry, looked up): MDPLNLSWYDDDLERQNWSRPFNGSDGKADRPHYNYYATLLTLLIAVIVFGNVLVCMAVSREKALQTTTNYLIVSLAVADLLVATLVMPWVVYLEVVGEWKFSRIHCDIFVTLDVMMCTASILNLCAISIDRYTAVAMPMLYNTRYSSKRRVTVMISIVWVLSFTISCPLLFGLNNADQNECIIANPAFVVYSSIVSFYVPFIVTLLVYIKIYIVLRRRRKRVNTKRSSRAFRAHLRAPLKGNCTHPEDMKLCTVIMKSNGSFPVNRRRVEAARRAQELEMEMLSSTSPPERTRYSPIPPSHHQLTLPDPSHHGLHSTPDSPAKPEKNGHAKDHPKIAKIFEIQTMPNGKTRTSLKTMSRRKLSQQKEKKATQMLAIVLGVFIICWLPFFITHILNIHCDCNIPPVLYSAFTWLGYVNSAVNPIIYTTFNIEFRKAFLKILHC

Row | SMILES | inhibition
1 | CC(C)(C)c1ccc(C(=O)NC(=S)NNC(=O)c2cccs2)cc1 | active: 56.4%
2 | CCOc1ccccc1C(=O)Nc1ccc(S(=O)(=O)Nc2onc(C)c2C)cc1 | 4.21%
3 | CCOC(=O)c1c(SCC(=O)Nc2nc3ccccc3s2)nc(=O)[nH]c1C | -8.58%
4 | CCCCC(=O)Oc1ccc2oc(-c3ccc(OC)cc3)cc(=O)c2c1 | 11%
5 | Cc1ccc(F)cc1NC(=O)CCc1c(C)nn(-c2ccc(N3CCCC3)nn2)c1C | 5.76%
6 | CCOc1cc(CNC(=O)c2ccc(Cn3c(=O)c4cccn4c4cccnc43)cc2)ccc1OC | 0.0476%
7 | CCOC(=O)c1cnc2cc(C(F)(F)F)ccc2c1N1CCN(c2cccc(Cl)c2)CC1 | -4.44%
8 | Cc1ccc(NC(=O)CSc2nc3ccc(NC(=O)c4cccs4)cc3s2)cc1 | -12%
9 | CN(Cc1ccc(F)cc1)S(=O)(=O)c1nnc(NC(=O)c2ccccc2Br)s1 | -7.57%
10 | Cc1ccc(NC(=O)CNC(=O)Cn2c(C)cc3ccccc3c2=O)cc1F | 1.06%
11 | Cc1ccc(-n2nc3c(=O)n(CCCC(=O)NCc4ccccc4C)nc(C)c3c2C)cc1 | -1.08%
12 | COCCNC(=O)c1c(-c2ccccc2)c(-c2ccccc2)nn(C)c1=O | 16.3%
13 | Cc1ccc([N+](=O)[O-])cc1S(=O)(=O)N1CCn2cccc2C1c1ccccc1F (stereo unspecified) | 1.04%
14 | CCOC(=O)c1c(C)c(-c2ccccc2)n(CC(=O)NCc2cccc(OC)c2)c1C | -7.28%
15 | O=C(NCc1cccn1Cc1ccccc1)Nc1cccc(C(F)(F)F)c1 | -7.9%
16 | Cn1c(=O)oc2cc(S(=O)(=O)N3CCC(C(=O)NCc4ccccc4)CC3)ccc21 | 12.1%
17 | CCOc1ccc(N2CC(NC(=O)c3ccc(S(=O)(=O)N4CCCC4)cc3)CC2=O)cc1 (stereo unspecified) | 4.45%
18 | CCN(CC)S(=O)(=O)c1ccc2c(c1)nc(CN(C)C(=O)Nc1ccc(Cl)cc1)n2C | -24.4%
19 | CCOC(=O)c1c(C)[nH]c(C)c1S(=O)(=O)NCC(=O)NCc1ccc(C)cc1 | 5.98%
20 | COc1ccccc1CNC(=O)CCNS(=O)(=O)c1ccc2c(c1)CCCC(=O)N2 | 4%
21 | O=C(NCc1cccn1Cc1ccccc1)Nc1ccc(Br)cc1F | -0.952%

Row | SMILES | inhibition
22 | COc1cccc(N2CCN(c3ncnc4c3c(-c3ccccc3)cn4-c3ccc(C)cc3)CC2)c1 | -7.92%
23 | CCCc1cc(=O)[nH]c2nnc(SCC(=O)Nc3ccc(OC)cc3)n12 | 10%
24 | O=C(Nc1ccccc1C(=O)OCc1cc(=O)n2ccsc2n1)c1ccc(Cl)cc1 | -12.7%
25 | Cc1ccc(S(=O)(=O)c2nnn3c2nc(NC(C)c2ccccc2)c2sccc23)cc1 (stereo unspecified) | -6.91%
26 | COc1cc(C2SC[C@H]3C(=O)N(c4ccccc4)C(=O)N23)cc(OC)c1OC (stereo partly specified) | 12.5%
27 | COc1ccc(CNC(=O)C2CCCN(C(=O)N3CCOc4ccccc43)C2)cc1 (stereo unspecified) | -23.9%
28 | CCCN(CCC)S(=O)(=O)c1ccc2c(c1)N(CC(=O)NCc1ccc(F)cc1Cl)C(=O)CS2 | -10.8%
29 | O=C(CCCn1c(=O)c2ccccc2n(CC(=O)Nc2cccc(C(F)(F)F)c2)c1=O)NCc1ccc2c(c1)OCO2 | 8.75%
30 | Cc1ccccc1-c1nc(CN2CCC(C(=O)NCCc3ccccc3)CC2)c(C)o1 | 14.3%
31 | CC(C)(C)c1ccc(C(=O)N2CCC(c3nc(-c4ccc(S(=O)(=O)N5CCCC5)cc4)no3)CC2)cc1 | 5.19%
32 | O=[N+]([O-])c1cccnc1N1CCN(Cc2ccc3c(c2)OCO3)CC1 | active: 92.3%
33 | CCOc1ccc(-c2cc3c(=O)n(Cc4nc(-c5ccc(OC(C)C)cc5)oc4C)ccn3n2)cc1Cl | -5.51%
34 | CCCCN(CC)CCCNC(=O)Cn1ncc2c3ccccc3n(Cc3ccccc3F)c2c1=O | 12.8%
35 | Cc1ccc(-c2n[nH]c3c2C(c2cccc(O)c2)N(c2ccc(C(=O)O)cc2)C3=O)cc1 (stereo unspecified) | 5.56%
36 | CCOc1ccc(N(CC)S(=O)(=O)N2CCCC(C(=O)Nc3cc(Cl)ccc3C)C2)cc1 (stereo unspecified) | 5.64%
37 | COc1ccccc1CNc1nc2ccc(Cl)cc2n2cnnc12 | -4.46%
38 | O=C(c1noc2c1CCCCC2)N1CCN(c2cccc(C(F)(F)F)c2)CC1 | 16.3%
39 | CC(=O)c1c(C)oc2c(Br)cc(NS(=O)(=O)c3ccc(Br)cc3)cc12 | -15.7%
40 | Cc1ccccc1OC(=O)CSc1nnc(-c2ccc3c(c2)OCO3)o1 | 15.2%
41 | Cc1ccc(Cl)cc1N1CCN(C(=O)C2CCN(S(=O)(=O)c3cccc4nonc34)CC2)CC1 | 6.94%
42 | CN1CCN(C(=O)Cn2c(-c3cccs3)cc3cc(Cl)ccc32)CC1 | -0.946%

Row | SMILES | inhibition
43 | COC(=O)c1cc(NC(=O)c2nn(C)c3c2CSc2ccccc2-3)cc(C(=O)OC)c1 | 16.3%
44 | Cc1cc2ccccc2n1CCNC(=O)c1cc(C(F)(F)F)cc(C(F)(F)F)c1 | -18.6%
45 | COCCn1c(SCC(=O)c2ccc(C)cc2C)nc2cc(C(=O)NC3CCCC3)ccc2c1=O | 17.3%
46 | Cn1nnc2c(N3CCN(c4ccccc4)CC3)ncnc21 | -7.05%
47 | CC(=O)Nc1ccc(NC(=O)CN2CCN(c3ccccn3)CC2)cc1 | active: 84.2%
48 | COc1cccc(NC(=O)C2CCC(CNS(=O)(=O)c3ccc4c(c3)CC(C)N4C(C)=O)CC2)c1 (stereo unspecified) | 25.4%
49 | CCOC(=O)c1cc(S(=O)(=O)Nc2ccc(C)cc2Cl)[nH]n1 | -28%
50 | O=C(CSc1nccn1Cc1ccco1)Nc1ccc(F)cc1 | -17.9%
51 | COc1ccc(CNC(=O)CSc2nc3ccccc3nc2Cc2ccccc2)cc1 | 11.3%
52 | Cn1c(CCN2CCN(c3ccccn3)CC2)nc2cc(NC(=O)COc3ccccc3)ccc21 | active: 47%
53 | CCOC(=O)c1[nH]c(C)c(CCC(=O)NCc2ccc(N(C)C)cc2)c1C | -4.76%
54 | COc1ccc(Cn2c(CCC(=O)NCc3cccc(Cl)c3)nc3cccnc32)cc1 | 9.36%
55 | COc1cccc(/C=C/c2nc(C#N)c(NCCN(C)C)o2)c1 | 1.92%
56 | COc1ccc(S(=O)(=O)NCCc2cc3ccc(C)c(C)c3[nH]c2=O)cc1 | -8.29%
57 | Cn1c(=O)c2c(-c3ccc(Cl)cc3)n(Cc3ccccc3)cc2n(C)c1=O | -12.2%
58 | Nc1cc(N)nc(SCCc2ccccc2)n1 | active: 47.1%
59 | O=C(O)Cn1nnc(-c2ccc(OCc3cccc(C(F)(F)F)c3)cc2)n1 | -0.0041%
60 | COc1ccc(Cl)cc1NS(=O)(=O)c1ccc2[nH]c3c(c2c1)CCCC3 | -5.97%
61 | Cc1ccc(Cl)cc1-n1c(=O)cc(N2CCN(c3ccc(F)cc3)CC2)[nH]c1=O | 13.4%
